The target of one test is T1, MsCANX_His (mouse, UniProt P35564).
T1 construct: recombinant, C-terminal polyhistidine tag; also called recombinant mouse CANX protein with a polyhistidine tag at the C-terminus
T1 sequence (antigen, looked up): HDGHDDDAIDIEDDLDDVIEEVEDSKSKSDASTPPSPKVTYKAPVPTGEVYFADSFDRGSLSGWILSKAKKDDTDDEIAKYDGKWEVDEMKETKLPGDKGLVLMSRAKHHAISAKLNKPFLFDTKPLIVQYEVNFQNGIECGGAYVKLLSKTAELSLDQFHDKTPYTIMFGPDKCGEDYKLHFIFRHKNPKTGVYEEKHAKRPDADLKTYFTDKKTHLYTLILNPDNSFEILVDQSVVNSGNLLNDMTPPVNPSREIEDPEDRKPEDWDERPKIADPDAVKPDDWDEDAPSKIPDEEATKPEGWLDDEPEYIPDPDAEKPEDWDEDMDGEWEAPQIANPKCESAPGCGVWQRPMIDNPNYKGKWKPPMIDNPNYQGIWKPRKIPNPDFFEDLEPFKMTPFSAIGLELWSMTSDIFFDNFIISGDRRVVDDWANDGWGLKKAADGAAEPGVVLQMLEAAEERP
Description: BLI, IgG1 on AHC biosensor, MsCANX_His 200-0.39 nM. As to the method: The binding affinity of the 15 antibody clones to recombinant mouse CANX protein with a polyhistidine tag at the C-terminus (MsCANX_His) was measured by Bio-Layer Interferometry. The 15 antibody clones were loaded and captured by the anti-human IgG Fc capture (AHC) biosensors (FIG. 6). The biosensors were dipped into a range of MsCANX_His protein concentrations (from 200 nM to 0.39 nM, in 2-fold dilutions), the kinetics of the association and dissociation were then recorded.
On the technique in general: Biolayer interferometry detects binding as a change in optical thickness at a sensor tip.

For test [1], the target named is T2, recombinant human CNX protein with a polyhistidine tag at the C-terminus (HuCANX_His) (human, UniProt P27824 21-481, limits assumed).
T2 construct: also called HuCANX with a His tag
T2 sequence (looked up): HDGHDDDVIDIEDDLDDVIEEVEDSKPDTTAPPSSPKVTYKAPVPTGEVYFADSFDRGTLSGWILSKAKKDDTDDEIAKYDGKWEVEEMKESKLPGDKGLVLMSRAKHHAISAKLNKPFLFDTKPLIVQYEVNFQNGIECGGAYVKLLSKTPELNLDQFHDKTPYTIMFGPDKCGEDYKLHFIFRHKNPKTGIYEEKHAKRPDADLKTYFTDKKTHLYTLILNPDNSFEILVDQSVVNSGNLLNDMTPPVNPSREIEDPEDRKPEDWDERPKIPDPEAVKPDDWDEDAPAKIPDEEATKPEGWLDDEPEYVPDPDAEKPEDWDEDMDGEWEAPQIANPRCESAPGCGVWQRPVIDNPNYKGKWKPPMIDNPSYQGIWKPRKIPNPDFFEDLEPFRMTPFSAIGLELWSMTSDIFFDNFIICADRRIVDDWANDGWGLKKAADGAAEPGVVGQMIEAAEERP
Put plainly: ELISA, IgG1 coated 10 nM, His-tagged antigen titrated (EC50 is of the antigen), anti-His-HRP. The method, then: The 15 antibody clones were tested using ELISA against biotinylated recombinant HuCANX_hFc protein to assess binding avidity for the target, with an irrelevant IgG1 used as a negative control antibody. In brief, the 15 antibody clones were coated at 2 μg/ml onto the 96-well ELISA plates overnight at 4° C. After blocking with casein for 2 hours, the biotinylated antigen was added at different concentrations (3 times serial dilutions) and incubated for 1 hour. The wells were then washed with PBST and detected by HRP conjugated streptavidin. […] antibody clones were also tested in ELISA against recombinant HuCANX_His protein to assess binding affinity for the target, with an irrelevant IgG1 used as a negative control antibody. In brief, the 15 antibody clones were coated at 10 nM onto the 96-well ELISA plates overnight at 4° C. After blocking with casein for 2 hours, the antigen was added at different concentrations (3 times serial dilutions) and incubated for 1 hour. The wells were then washed with PBST and detected by HRP conjugated anti-His tag antibody.
For orientation: In an ELISA, binding on a coated surface is turned into a signal by an enzyme label.

For test [2], the target named is T2, recombinant human CNX protein with a …. Description: BLI, IgG1 on AHC biosensor, HuCANX_His 200-3.13 nM. As to the method:
The 5 antibody clones were loaded and captured by the anti-human IgG Fc capture (AHC) biosensors. The biosensors were dipped into a range of HuCANX_His protein concentrations (from 200 nM to 3.13 nM, in 2-fold dilutions), the kinetics of the association and dissociation were then recorded.

As usually defined, the Kd is the constant that tells how readily two partners part at equilibrium. For orientation: koff means the first-order rate constant of dissociation. The kon is the second-order rate constant of association. The EC50 is the concentration that produces a half-maximal response.

B1: 1E1 IgG1 (antibody)
heavy: QVQLQESGGGVVRPGGSLRLSCAASGFTFDDYGMSWVRQAPGKGLEWVSGINWNGGSTGYADSVKGRFTISRDNAKNSLYLQMNSLRAEDTAVYYCARGIAVDYWGQGTLVTVSS[left out - human IgG1 constant region]
light: not shown
notes: also called IgG1 1E1; Igg1 1E1
Consider B1, for which, in the test with MsCANX_His, the Kd worked out at 1.8 nM, the koff worked out at 0.000102 s⁻¹ and the kon is 56900 M⁻¹ s⁻¹. Moreover, the EC50 in test [1] came to 41.4 nM. Moreover, in test [2], the Kd is 2.09 nM, the koff was 7.03e-05 s⁻¹ and the kon is 33700 M⁻¹ s⁻¹.

The values above are taken from patent US20260250378A1 (AGENCY FOR SCIENCE TECHNOLOGY AND RESEARCH, published 2026).
